Laboratory results as given in PubChem BioAssay AID1466 (National Center for Advancing Translational Sciences (NCATS), 2008).
About 10 (0.005%) of roughly 200,000 compounds were called active. The shares of active, inactive and inconclusive entries below differ from those in the screen. Calls follow the shape of the dose curve; as a rule, active = well fitted inhibition curve with a large enough effect; inconclusive = small, poorly fitted or top-dose-only effect, or effect the other way, or another doubt; inactive = no such curve, though single readings can be large or run the other way. Where the call is inconclusive, the potency comes from a doubtful curve fit.

target: Lysosomal alpha-glucosidase (Homo sapiens) (UniProt P10253); assay: qHTS Assay for Inhibitors of Human alpha-Glucosidase as a Potential Chaperone Treatment of Pompe Disease; conditions: purified human GAA, 4-MU-alpha-glucoside fluorescence; activity change, negative = inhibition: at 76.9 µM (top of the series) unless noted;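 as to activity change, negative = inhibition: plate controls were uninhibited enzyme wells for no effect and no-enzyme background for full effect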
Outline: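 qHTS format, compound range up to 77 uM. Human lysosomal enzyme at 4 nM, 400 uM 4-MU glucoside substrate, pH 5.0, 20 min room temperature; fluorescence after alkaline stop gives activity normalized to controls.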
Potency is read from the fitted curve at half-maximal effect; tags tell the direction and shape of the fitted curve.

Row | Structure (SMILES) | Potency | activity change, negative = inhibition
1 | Cc1ccc2c(c1)c1ncnc(N3CCC4(CC3)OCCO4)c1n2C | inconclusive: 39.8 µM [activator, partial curve] | 
2 | CCCCSc1nnc(NC(=O)CCc2ccccc2)s1 |  | inactive: 0.116%
3 | CCN(CC)CCCNC(=O)CCC(=O)Nc1ccc2nc(N3CCCCC3)cc(C)c2c1 | inconclusive: 35.5 µM [activator, partial curve] | 
4 | Cc1cccc(C)c1NC(=O)CSc1nnc(-c2ccco2)c(-c2ccco2)n1 | inconclusive: 25.1 µM [inhibitor, partial curve] | 
5 | COC(=O)CCC/C=C1/SCC(NC(=O)c2ccccc2)/C1=N/O (stereo not given) | inconclusive: 0.178 µM [inhibitor, full curve, poor fit] | 
6 | CCc1ccc(NC(=S)N(Cc2cccc(Br)c2)CC2CCC(C(=O)O)CC2)cc1 (stereo not given) | inconclusive: 7.08 µM [inhibitor, full curve] | 
7 | COc1ccccc1NC(=O)CN(Cc1ccco1)C(=O)c1cncc(Br)c1 |  | inactive: -18.6%
8 | COc1ccc(OC)c(NC2c3ncccc3C(=O)N2Cc2ccco2)c1 (stereo not given) | inconclusive: 11.2 µM [inhibitor, single point] | 
9 | Clc1ccc(-c2ncc3ccccn23)c(Cl)c1 |  | inconclusive: 9.96% [activator]
10 | Cc1ccc(NC(=O)c2ccc(NCCCN3CCOCC3)c([N+](=O)[O-])c2)cc1Cl | inconclusive: 4.47 µM [inhibitor, single point] | 
11 | COc1cc(/C=C2\NC(=S)N(C)C2=O)ccc1O | inconclusive: 35.5 µM [inhibitor, single point] | 
12 | COc1cc(-c2[nH]nc3c2C(c2ccco2)C(C#N)=C(N)O3)cc(OC)c1OC (stereo not given) | inconclusive: 56.2 µM [inhibitor, single point] | 
13 | Clc1ccc2nc3ccccn3c2c1 | inconclusive: 35.5 µM [activator, partial curve] | 
14 | CC(C)(C)c1ccc(NC(=O)c2c(F)cccc2Cl)cc1 | inconclusive: 50.1 µM [inhibitor, single point] | 
15 | Cc1ccc(-c2cc(-c3ccccc3Cl)c(C#N)c(N)n2)o1 | inconclusive: 28.2 µM [activator, partial curve] | 
16 | Cc1ccc(C(c2nnnn2C2CCCCC2)N(C)C2CCCCC2)cc1 (stereo not given) | inconclusive: 44.7 µM [inhibitor, partial curve, poor fit] | 
17 | Cc1ccn2c(NC3CCCC3)c(-c3ccncc3)nc2c1 |  | inactive: -9.63%
18 | CCN(CC)S(=O)(=O)c1ccc2[nH]cc(C(=O)NCCC3=CCCCC3)c(=O)c2c1 | inconclusive: 44.7 µM [inhibitor, partial curve, poor fit] | 
19 | CC(=O)NC1C(Oc2ccc(C=O)cc2)OC(COC(C)=O)C(OC(C)=O)C1OC(C)=O (stereo not given) |  | inconclusive: 19.5% [activator]
20 | CCC(=O)NC1OC(CO)C(O)C(O)C1O (stereo not given) | inconclusive: 0.282 µM [activator, full curve, poor fit] | 
21 | CC1CC1C(=O)OCc1cc(=O)n2cc(Br)ccc2n1 (stereo not given) | inconclusive: 11.2 µM [inhibitor, single point] | 
22 | CSc1ccccc1C(=O)NC1CCCC1 | inconclusive: 0.158 µM [inhibitor, full curve, poor fit] | 

Row | Structure (SMILES) | Potency | activity change, negative = inhibition
23 | CN1CCc2cc3c(c4c2C1CC41CCC(=NO)CC1)OCO3 (stereo not given) | inconclusive: 50.1 µM [activator, single point] | 
24 | C=CC[N+]1(CC=C)CCOCC1 |  | inconclusive: 22.4% [activator]
25 | CCCCCC(=O)Nc1cc(N(C)C)nc2ccccc12 | inconclusive: 22.4 µM [activator, partial curve] | 
26 | COc1ccc(NC(=O)CN2CCN(c3ccccc3Cl)CC2)cc1 | inconclusive: 5.62 µM [inhibitor, full curve, poor fit] | 
27 | N#C/C(=C\c1ccc(-c2ccc(S(=O)(=O)N3CCOCC3)cc2)o1)C(=O)NC1CC1 | inconclusive: 35.5 µM [inhibitor, single point] | 
28 | O=C(O)CSc1nc(-c2ccc(Cl)cc2)nc2c1oc1ccccc12 | inconclusive: 0.794 µM [inhibitor, partial curve, poor fit] | 
29 | CCC(C)(C)n1nnnc1C(c1ccc2ncccc2c1)N1CCN(c2nc3ccccc3s2)CC1 (stereo not given) | inconclusive: 44.7 µM [inhibitor, single point] | 
30 | Cc1ccc(S(=O)(=O)Cc2ccc(C(=O)N3CCCCCC3)o2)cc1 | inconclusive: 56.2 µM [inhibitor, single point] | 
31 | COCCNC(=O)C1(C)C=CC2(CCCCC2)N1C(=O)c1ccccc1 (stereo not given) | inconclusive: 20 µM [inhibitor, single point] | 
32 | COC(=O)c1c(NC(=O)c2ccccc2N(C)S(=O)(=O)c2ccccc2)sc2c1CCCC2 |  | inconclusive: 18.7% [activator]
33 | CCN(CC)C(=S)NC(=O)C12CC3CC(CC(C3)C1)C2 |  | inconclusive: 19.6% [activator]
34 | Cc1ccc(N(C(=O)Cc2cccs2)C(C(=O)NCC2CCCO2)c2ccncc2)cc1 (stereo not given) |  | inconclusive: 26.9% [activator]
35 | Cc1ccc(C)c(SCC(=O)OC/C(O)=C(\C#N)c2nc3ccccc3[nH]2)c1 | inconclusive: 5.01 µM [inhibitor, full curve] | 
36 | COc1cccc(NC(=O)C2CC(=O)N=C(N)S2)c1 (stereo not given) | inconclusive: 20 µM [inhibitor, partial curve, poor fit] | 
37 | O=C(CNC(=O)c1cccs1)NCC(=O)OCc1ccc(F)cc1 |  | inconclusive: 16.3% [activator]
38 | Cc1cc(C)n(C2CC(=O)N(c3ccc(Cl)c(Cl)c3)C2=O)n1 (stereo not given) | inconclusive: 0.0794 µM [inhibitor, full curve] | 
39 | Cc1ccc(S(=O)(=O)N2CCC(=O)N(C(COC(=O)Nc3ccccc3)Cc3ccccc3)CC2)cc1 (stereo not given) | inconclusive: 4.47 µM [inhibitor, partial curve] | 
40 | S=c1[nH]nc(Cc2cccc3ccccc23)o1 | inconclusive: 0.178 µM [inhibitor, full curve, poor fit] | 
41 | Cc1ccc(Nc2nc(N)nc(CSc3nc4ccccc4s3)n2)cc1 | inconclusive: 28.2 µM [inhibitor, single point] | 
42 | Cc1cc(C)nc(/N=C(\N)Nc2ccc(S(N)(=O)=O)cc2)n1 | inconclusive: 25.1 µM [inhibitor, single point] | 
43 | S=C(NCC1CCCO1)Nc1cc(Cl)c(Cl)cc1Cl (stereo not given) | inconclusive: 56.2 µM [inhibitor, single point] | 
44 | Cc1cc(C)cc(NC(=O)CSc2ccc(-c3cccs3)nn2)c1 | inconclusive: 35.5 µM [inhibitor, partial curve] | 

Row | Structure (SMILES) | Potency | activity change, negative = inhibition
45 | Cc1c(S(=O)(=O)N2CCN(C(c3ccccc3)c3ccccc3)CC2)c(=O)n(C)c(=O)n1C |  | inconclusive: -16.5% [inhibitor]
46 | COc1ccccc1CC(=O)Nc1ccc([N+](=O)[O-])cc1OC | inconclusive: 12.6 µM [inhibitor, single point] | 
47 | COC1=C(Nc2ccccc2)C(=O)c2ccccc2C1=O |  | inactive: 0.849%
48 | CC(=O)/C=C(\C)Nc1ccc(-c2cnc(-c3ccccc3)o2)cc1 | inconclusive: 39.8 µM [activator, partial curve] | 
49 | Cc1ccc(-c2cc(-c3ccccc3)c(C#N)c(N)n2)o1 | inconclusive: 35.5 µM [activator, partial curve] | 
50 | CCOc1cc2nc3c4ccccc4n(C)c3nc2cc1OCC |  | inconclusive: 10.3% [activator]
51 | CCOC(=O)c1[nH]c2ccc(Br)cc2c1NC(=O)CCN1CCC(C)CC1 |  | inconclusive: -16.2% [inhibitor]
52 | Cn1c(=Nc2ccccc2)sc2ccccc21 | inconclusive: 7.08 µM [inhibitor, partial curve, poor fit] | 
53 | COC(=O)[C@@H](NC(=O)O[C@@H]1C(=O)c2ccc(OC)cc2O[C@H]1c1cccc(C(F)(F)F)c1)C(C)C |  | inconclusive: -0.367% [inhibitor] [at 15.4 µM]
54 | Cc1ccc(NC(=S)NC(=O)/C=C/c2ccco2)c(O)c1 | inconclusive: 1.58 µM [inhibitor, full curve] | 
55 | COc1ccc(C2C3=C(CCCC3=O)Nc3nc(-c4cc(OC)c(OC)c(OC)c4)nn32)cc1OC (stereo not given) | inconclusive: 35.5 µM [activator, partial curve] | 
56 | Oc1ccc(-c2nc3ccc4ccccc4c3c3c2CCC3)cc1O | inconclusive: 31.6 µM [inhibitor, partial curve] | 
57 | O=C1C=CC(=O)N1c1ccc(Sc2ccc([N+](=O)[O-])cc2)cc1 | inconclusive: 44.7 µM [inhibitor, partial curve] | 
58 | O=C(O)CCCC(=O)NNC(=O)c1cccc(Br)c1 |  | inconclusive: 7.92% [activator]
59 | O=c1/c(=C\c2ccc(O)cc2)sc2n1C(c1ccccc1)C(c1ccccc1)=NN=2 (stereo not given) | inconclusive: 7.08 µM [inhibitor, full curve] | 
60 | CC(=O)c1sc(NC(=O)C(C)C)nc1C | inconclusive: 1.78 µM [inhibitor, full curve] | 
61 | Cc1cc(/C=C2/NC(=O)N(Cc3ccccc3F)C2=O)c(C)n1C | inconclusive: 56.2 µM [inhibitor, single point] | 
62 | Cc1nnc(NC(=O)CCC(=O)N2CCN(CCc3ccccc3)CC2)s1 | inconclusive: 7.08 µM [inhibitor, single point] | 
63 | O=C(Nc1ccc(Cl)cc1)NC1CCCCC1 |  | inactive: 0.476%
64 | COc1cc(OC)c(OC)cc1/C=C/c1cc(C(F)(F)F)[nH]c(=O)n1 |  | inconclusive: 12.2% [activator]
65 | Cc1ccc(NC(=O)c2ccc3c(c2)C(=O)N(CC2CCCO2)C3=O)cc1C (stereo not given) |  | inactive: 3.58%
